Reference: paper PMC3328386 (The Journal of Cell Biology, 2012)

Target: T1, recombinant HERC2 ZZ domain (amino acids 2702–2755), WT (human, UniProt O95714 2702-2755)
T1 sequence: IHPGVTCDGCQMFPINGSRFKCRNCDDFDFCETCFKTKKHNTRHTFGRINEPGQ
Experiment: ITC

B1: recombinant SUMO1 (natural protein)
chain: not shown
- stoichiometry N: 1
